Laboratory results as given in the RNAGym collection of RNA variant scans (doi:10.1101/gad.245936.114).
Variants at the background level are over-represented here.

B1: tRNA (parent)
chain: CUCUCGGUAGCCAAGUUGGUUUAAGGCGCAAGACUUUAAUUUAUCACUACGAAAUCUUGAGAUCGGGCGUUCGACUCGCCCCCGGGAGAUUUUUUCCUCGAGCAA

Variants of: B1
Assay: nonsense suppression (GFP-seq) (ratio to wild type); higher = more function; SUP4oc tRNA, yeast GFP reporter sort-seq
Procedure, shortened: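 To measure nonsense suppression, tRNA variants from a library carrying ~3% random mutations were integrated into the yeast genome alongside RFP and a GFP ochre reporter under galactose control. Growth took place in raffinose/galactose medium supplemented with 80 mg/L adenine, followed by sorting into GFP/RFP bins and Illumina sequencing of each bin (phred ≥30). For each variant with ≥100 reads and ≥30 cells, the bin median GFP/RFP values were weighted by its estimated cell share per bin and referenced to the unmutated parent tRNA.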

Nonsense suppression, ≤ 0.026:
CUCUCGGUAGCCAAGUUGGUUUAAGGCGCAAGACUUUAAUUUAUCACUACGAAAUCUUGAGAUCGGGCGAUCGAAUCGCCCCCGGGAGCUUUUUUCCUCGAGCAA [U70A C75A A89C]
CUCUCGGUAGCCAAGUUGGUUUAAGGCGCAAGACUUUAAUUUAUCACUACGAAAUCUUGAGAUCGGGCGAUCGACUCGCCCCAGGGAGAUUUUUUCCUCGAGCAA [U70A C83A]
CUCUCGGUAGCCAAGUUGGUUUAAGGCGCAAGACUUUAAUUUAUCACUACGAAAUCUUGAGAUCGGGCGAUCGACUCGCCCCGGGGAGAUUUUUUCCUCGAGCAA [U70A C83G]
CUCUCGGUAGCCAAGUUGGUUUAAGGCGCAAGACUUUAAUUUAUCACUACGAAAUCUUGAGAUCGGGCGAUCCACUCGCCCCCGGGAGAUUUUUUCCUCGAGCAA [U70A G73C]
CUCUCGGUAGCCAAGUUGGUUUAAGGCGCAAGACUUUAAUUUAUCACUACGAAAUCUUGAGAUCGGGCGAUCUACUCGCCCCCGGGAGAUUUUUUCCUCGAGCAA [U70A G73U]
CUCUCGGUAGCCAAGUUGGUUUAAGGCGCAAGACUUUAAUUUAUCACUACGAAAUCUUGAGAUCGGGCGAACGACUCGCCCCCGGGAGAUUUUUUCCUCGAGCAA [U70A U71A]
CUCUCGGUAGCCAAGUUGGUUUAAGGCGCAAGACUUUAAUUUAUCACUACGAAAUCUUGAGAUCGGGCGACCGACUCGCCCCCGGGAGAUUUUUUCCUCGAGCAA [U70A U71C]
CUCUCGGUAGCCAAGUUGGUUUAAGGCGCAAGACUUUAAUUUAUCACUACGAAAUCUUGAGAUCGGGCGAUCGACCCGCCCCUGGGAGAUUUUUUCCUCGAGCAA [U70A U76C C83U]
CUCUCGGUAGCCAAGUUGGUUUAAGGCGCAAGACUUUAAUUUAUCACUACGAAAUCUUGAGAUCGGGCGCUCGACUCGCCCCCGGGAGAUUUUUUCCUCGAGCAA [U70C]
CUCUCGGUAGCCAAGUUGGUUUAAGGCGCAAGACUUUAAUUUAUCACUACGAAAUCUUGAGAUCGGGCGCUCGGCUCGCCCCCGGGAGAUUUUUUCCUCGAGCAA [U70C A74G]
CUCUCGGUAGCCAAGUUGGUUUAAGGCGCAAGACUUUAAUUUAUCACUACGAAAUCUUGAGAUCGGGCGCUCGGCUCGCCCCCGGGCGAUUUUUUCCUCGAGCAA [U70C A74G A87C]
CUCUCGGUAGCCAAGUUGGUUUAAGGCGCAAGACUUUAAUUUAUCACUACGAAAUCUUGAGAUCGGGCGCUCGAGUCGCCCCCGGGAGAUUUUUUCCUCGAGCAA [U70C C75G]
CUCUCGGUAGCCAAGUUGGUUUAAGGCGCAAGACUUUAAUUUAUCACUACGAAAUCUUGAGAUCGGGCGCUCGACUUGCCCCCGGGAGAUUUUUUCCUCGAGCAA [U70C C77U]
CUCUCGGUAGCCAAGUUGGUUUAAGGCGCAAGACUUUAAUUUAUCACUACGAAAUCUUGAGAUCGGGCGCUCGACUCGACCCCGGGACAUUUUUUCCUCGAGCAA [U70C C79A G88C]
CUCUCGGUAGCCAAGUUGGUUUAAGGCGCAAGACUUUAAUUUAUCACUACGAAAUCUUGAGAUCGGGCGCUCGACUCGGCCCCGGGAGAUUUUUUCCUCGAGCAA [U70C C79G]
CUCUCGGUAGCCAAGUUGGUUUAAGGCGCAAGACUUUAAUUUAUCACUACGAAAUCUUGAGAUCGGGCGCUCGACUCGCAGCCGGGAGAUUUUUUCCUCGAGCAA [U70C C80A C81G]
CUCUCGGUAGCCAAGUUGGUUUAAGGCGCAAGACUUUAAUUUAUCACUACGAAAUCUUGAGAUCGGGCGCUCGACUCGCCCCCGGCAGAUUUUUUCCUCGAGCAA [U70C G86C]
CUCUCGGUAGCCAAGUUGGUUUAAGGCGCAAGACUUUAAUUUAUCACUACGAAAUCUUGAGAUCGGGCGCUCGACUCGCCCCCGGGAAAUUUUUUCCUCGAGCAA [U70C G88A]
CUCUCGGUAGCCAAGUUGGUUUAAGGCGCAAGACUUUAAUUUAUCACUACGAAAUCUUGAGAUCGGGCGGUCGACUCGCCCCCGGGAGAUUUUUUCCUCGAGCAA [U70G]
CUCUCGGUAGCCAAGUUGGUUUAAGGCGCAAGACUUUAAUUUAUCACUACGAAAUCUUGAGAUCGGGCGGUCGCCUCGCCCCCGGGAGAUUUUUUCCUCGAGCAA [U70G A74C]
CUCUCGGUAGCCAAGUUGGUUUAAGGCGCAAGACUUUAAUUUAUCACUACGAAAUCUUGAGAUCGGGCGGUCGAUUCGCCCCCGGGAGAUUUUUUCCUCGAGCAA [U70G C75U]
CUCUCGGUAGCCAAGUUGGUUUAAGGCGCAAGACUUUAAUUUAUCACUACGAAAUCUUGAGAUCGGGCGGUCGAUUCGCCCCCGGGAAAUUUUUUCCUCGAGCAA [U70G C75U G88A]
CUCUCGGUAGCCAAGUUGGUUUAAGGCGCAAGACUUUAAUUUAUCACUACGAAAUCUUGAGAUCGGGCGGUCGACUGGCCCCCGGGAGAUUUUUUCCUCGAGCAA [U70G C77G]
CUCUCGGUAGCCAAGUUGGUUUAAGGCGCAAGACUUUAAUUUAUCACUACGAAAUCUUGAGAUCGGGCGGUCGACUUGCCCCCGGGAGAUUUUUUCCUCGAGCAA [U70G C77U]
CUCUCGGUAGCCAAGUUGGUUUAAGGCGCAAGACUUUAAUUUAUCACUACGAAAUCUUGAGAUCGGGCGGUCGACUCGCCGCCGGGAGAUUUUUUCCUCGAGCAA [U70G C81G]
CUCUCGGUAGCCAAGUUGGUUUAAGGCGCAAGACUUUAAUUUAUCACUACGAAAUCUUGAGAUCGGGCGGUCGACUCGCCCACGGGAGAUUUUUUCCUCGAGCAA [U70G C82A]
CUCUCGGUAGCCAAGUUGGUUUAAGGCGCAAGACUUUAAUUUAUCACUACGAAAUCUUGAGAUCGGGCGGUCGACUCGCCCGCGGGAGAUUUUUUCCUCGAGCAA [U70G C82G]
